The list shows a part of the results.
What follows are compounds tested on T1, C. trachomatis L2/434/Bu expressing GFP (CTL2-GFP). Conditions: total inclusion area; 28.5 h, 10 µM; inhibitor.
T1 construct: L2/434/Bu GFP intracellular growth in HeLa cells
Design: species or system HeLa; C. trachomatis total inclusion area by high-content imaging, normalised to DMSO
Method in brief: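 Bulk GFP and resorufin signals were read first. Wells were then fixed, stained with Hoechst and imaged to detect GFP inclusions and host nuclei. MICs followed the previously described calculation.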

SMILES	% of control remaining
CC1Cc2cc(C(=O)N3CCCCC3CCN3CCCC3)ccc2O1 (stereo not drawn) [CBK282094]	85.5856
Clc1ccc(CN2CCN(CCc3ccccc3)CC2)cc1Cl [CBK126420]	103.801
O=C(NCCNC(=O)c1ccccn1)c1ccccn1 [CBK265654]	97.7746
Cc1cc(Cl)ccc1NC(=O)CCC(=O)N/N=C/c1ccc(O)cc1 [CBK261974]	97.8304
CC(C)C1SC(=NC2CC3CCC2C3)N(C)C1=O (stereo not drawn) [CBK076727]	89.158
CN(Cc1ccccc1)C(=O)[C@@H]1Cc2[nH]cnc2CN1Cc1cc2ccccc2o1 [CBK288978]	88.5192
CCc1nc2n(n1)CC(NCc1nc(C)ccc1O)CC2 (stereo not drawn) [CBK306107]	37.0779
COc1cc2c(cc1CN(Cc1ccc3c(c1)OCO3)CC(C)O)CCC2 (stereo not drawn) [CBK286473]	80.1388
O=C(O)CCc1ccc(-c2cc(N3CCN(CC(=O)N4CCCC4)CC3)ncn2)cc1 [CBK091079]	106.049
Cc1cccc(OCc2nnc(SCc3nc4ccccc4c(=O)[nH]3)o2)c1 [CBK269030]	88.8929
O=C(NC1CCCC1)c1ccc2nccnc2c1 [CBK200217]	100.623
C=CCn1c2cc(C)sc2c2cnn(CC(=O)NC3CC3)c(=O)c21 [CBK284149]	92.5871
COc1cc(F)ccc1-c1ccc(N)c2ccccc12 [CBK084319]	93.8706
Cn1ccnc1C1(O)CCN(C(=O)c2cccc(F)c2)CC1 [CBK283543]	64.9556
CC1(CNC(=O)c2cc(C3CC3)nc3ccccc23)COC1 [CBK281752]	128.209
Cc1ccc(CCC(=O)C(C#N)c2nc3ccccc3s2)o1 (stereo not drawn) [CBK268944]	79.9539
O=C(O)C1CCCCN1S(=O)(=O)c1ccc(Cl)cc1 (stereo not drawn) [CBK077418]	77.4018
O=[N+]([O-])c1cc(S(=O)(=O)Nc2ccccc2)ccc1N1CCN2CCCC2C1 (stereo not drawn) [CBK001248]	92.6174
Cc1cc(C)n(C(C)CC(=O)NCC(C)N2CCC(C)CC2)n1 (stereo not drawn) [CBK282104]	93.3628
CCn1nc(C(C)C)cc1C(=O)N1CCN(C)CC1c1ccccc1 (stereo not drawn) [CBK282025]	91.618
O=C(/C=C/c1ccco1)NC(=S)Nc1ccccc1[N+](=O)[O-] [CBK264375]	96.3066
Cc1[nH]c(=O)c(C(=O)Nc2ccc(-n3ccc(C(N)=O)n3)cc2)cc1-c1ccccc1 [CBK291194]	84.6501
COc1ccc(NC(=O)c2cnccn2)c(OC)c1 [CBK262240]	65.6461
O=C(CSc1n[nH]c(-c2ccccc2Cl)n1)Nc1ccccc1F [CBK265901]	83.729
CN1CCN(S(=O)(=O)c2ccc(NC(=O)c3cc(-c4ccncc4)nc4ccc(Cl)cc34)cc2)CC1 [CBK267730]	68.1859
COc1ccc(C)cc1NC(=O)CSc1nnc(-c2ccccc2Cl)n1-c1ccccc1 [CBK267538]	81.0169

SMILES	% of control remaining
CCOC(CCNC(=O)c1cnc(Nc2ccccc2OC)c2ccccc12)OCC [CBK291184]	26.9153
O=C(CCn1cccn1)N1Cc2ccccc2CC1C1CCOCC1 (stereo not drawn) [CBK282262]	82.7393
N#Cc1cc(SCCC(=O)O)c(N2CCOCC2)cc1C#N [CBK269212]	109.962
CCOC(=O)C1(C2CCCCC2)CCN(C(=O)c2cccnc2)CC1 [CBK137104T]	80.2772
CC(C)(C)c1cn(C[C@H]2CC3CCN2C[C@@H]3C(=O)NCc2ccc(F)cc2)nn1 (stereo partly drawn) [CBK289081]	105.413
Fc1c(F)c(Oc2ccccc2Cl)c(F)c(F)c1/C=C/CN1CCOCC1 [CBK269318C]	99.3602
CCN(CC)C(=O)c1sccc1NS(=O)(=O)c1ccc(OC)c(OC)c1 [CBK004596]	121.751
COc1ccc(C2CC(c3c(-c4ccccc4)c4cc(Cl)ccc4[nH]c3=O)=NN2C(=O)CCC(=O)O)cc1OC (stereo not drawn) [CBK296128]	130.802
O=c1c2ccccc2[nH]c(=S)n1CCCN1CCC(Cc2ccccc2)CC1 [CBK267952]	100.981
O=C1c2ccccc2NC(c2cnc3ccccc3n2)N1O (stereo not drawn) [CBK288357]	57.5269
CSc1ccc(-c2cn3ccnc3c(Nc3ccccc3)n2)cc1 [CBK066537]	143.065
C=CCN1C(=O)CC2(C1=O)C(=O)N(C)c1ccccc12 (stereo not drawn) [CBK075472]	94.6425
CCOC(=O)c1ccc(C2=NCCC2)[nH]1 [CBK011191]	86.103
O=C(Oc1ccc(F)cc1C(=O)/C=C/c1ccccc1F)c1cccc([N+](=O)[O-])c1 [CBK264859]	39.9261
O=S(=O)(Nc1cccc2cc[nH]c12)c1ccc(F)cc1F [CBK153586]	111.456
CC(C)n1ccc2cc(C(=O)NC3CCOC(C)(C)C3)ccc21 (stereo not drawn) [CBK304366]	45.3297
O=C(NCCCNc1ccc(C(F)(F)F)cc1[N+](=O)[O-])c1ccc(Cl)cc1 [CBK263721]	116.368
Cc1nc(S(=O)(=O)N2CCC(C(=O)N3CCCCCC3)CC2)cn1C [CBK305765]	29.229
Cc1cc(O)nc(C(C)N2CCN(Cc3noc(C(C)(C)C)n3)CC2)n1 (stereo not drawn) [CBK305249]	108.467
CCCN1C[C@@H](O)C[C@H]2[C@H](O)[C@@H]1c1ccccc1N2C(=O)OC [CBK007809]	72.2581
CSc1ccccc1-n1nnnc1SCc1ccccc1 [CBK099033]	78.8926
CCNC(=O)C1(Cc2ccccc2-c2ccccc2C)CCN(C(=O)C2CCCCC2)CC1 [CBK285717]	85.4731
COCC(=O)N1CCN(C(=O)c2cccc(F)c2)C[C@H]1C(=O)OC [CBK289608]	90.12
CS(=O)(=O)c1ccc(-n2nnnc2CN2CCC3(CCC3)C2)cc1 [CBK306262]	29.2511
Cc1ccc(Cc2cnc(NC(=O)CN3CSCC3=O)s2)cc1Cl [CBK305001]	69.8111
